Reference: the RNAGym collection of RNA variant scans (doi:10.1073/pnas.2313332121)
This sample is rich in variants without activity.

B1: TPR 5TU (parent)
chain: GGAUCUUCUCGAUCUAACAAAAAAGACAAAUCUGCCACAAAGCUUGAGAGCAUCUUCGGAUGCAGAGGCGGCAGCCUUCGGUGGCGCGAUAGCGCCAACGUUCUCAACUAUGACACGCAAAACGCGUGCUCCGUUGAAUGGAGUUUAUCAUG

Variants of: B1
Assay: polymerase ribozyme fitness, log enrichment relative to wild type (log ratio); higher = more active; in vitro selection for triplet polymerase activity
Procedure, shortened: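 Mutant libraries for each subunit of a heterodimeric triplet polymerase ribozyme were made by PCR and then transcribed. Each library underwent one round of in vitro selection in triplicate: annealing with a biotinylated primer, the partner subunit and triplets, frozen incubation at −7 °C, gel excision of extended constructs, streptavidin-bead capture and RT-PCR. Input and output libraries were Illumina-sequenced, and only genotypes with ≥10 input reads and ≥1 read per output were kept. Fitness is the logarithm, base 2, of genotype enrichment over wild-type enrichment, computed from inverse-variance-weighted replicate averages.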

**Q.** Which “polymerase ribozyme fitness (log ratio)” value does the source give for A52G G84A C116G here?
**A.** -2.02

**Q.** For C54A A91U G100A G141C, which “polymerase ribozyme fitness (log ratio)” value is on record?
**A.** ≤ -4.2

**Q.** Which “polymerase ribozyme fitness (log ratio)” value does the source give for U53G C54G C85A U134A here?
**A.** ≤ -4.2

**Q.** With A52U C54G C93A as the variant, how does the “polymerase ribozyme fitness (log ratio)” value read?
**A.** ≤ -4.2

**Q.** For A52G U53G G68A C116G U144G, which “polymerase ribozyme fitness (log ratio)” value is on record?
**A.** ≤ -4.2

**Q.** Which “polymerase ribozyme fitness (log ratio)” value does the source give for U53A C79G C87A A115C U146C here?
**A.** ≤ -4.2

**Q.** For A52U U78G G83A C129A, which “polymerase ribozyme fitness (log ratio)” value is on record?
**A.** ≤ -4.2

**Q.** For U53A C79A U102G U151G, which “polymerase ribozyme fitness (log ratio)” value is on record?
**A.** ≤ -4.2

**Q.** Which “polymerase ribozyme fitness (log ratio)” value does the source give for U53A G86A A91C G128C here?
**A.** ≤ -4.2

**Q.** Which “polymerase ribozyme fitness (log ratio)” value does the source give for U53G C54U C76U U78G C87G A98U here?
**A.** ≤ -4.2

**Q.** For A52U A66G A73G C76A C93G, which “polymerase ribozyme fitness (log ratio)” value is on record?
**A.** ≤ -4.2

**Q.** With U53A C85U A137G A142C as the variant, how does the “polymerase ribozyme fitness (log ratio)” value read?
**A.** -3.93

**Q.** Which “polymerase ribozyme fitness (log ratio)” value does the source give for A52U C125U here?
**A.** -1.42

**Q.** For A52U G84C C116U U146G, which “polymerase ribozyme fitness (log ratio)” value is on record?
**A.** -4.11

**Q.** Which “polymerase ribozyme fitness (log ratio)” value does the source give for U53A G92U C103A here?
**A.** -2.78

**Q.** For U53A U56G U77C U104C, which “polymerase ribozyme fitness (log ratio)” value is on record?
**A.** ≤ -4.2

**Q.** With U53A A110C as the variant, how does the “polymerase ribozyme fitness (log ratio)” value read?
**A.** ≤ -4.2

**Q.** With U53A G67U C99U A122C as the variant, how does the “polymerase ribozyme fitness (log ratio)” value read?
**A.** ≤ -4.2

**Q.** For U53C C76U C93A C105G C118A A120U, which “polymerase ribozyme fitness (log ratio)” value is on record?
**A.** ≤ -4.2

**Q.** Which “polymerase ribozyme fitness (log ratio)” value does the source give for C54A C96G A97C G143C here?
**A.** ≤ -4.2

**Q.** For A52U U53A C57A G58C A89U, which “polymerase ribozyme fitness (log ratio)” value is on record?
**A.** 0.000593

**Q.** For U53A G88C A122U, which “polymerase ribozyme fitness (log ratio)” value is on record?
**A.** ≤ -4.2

**Q.** With U53A U109G U111A A115U G128A as the variant, how does the “polymerase ribozyme fitness (log ratio)” value read?
**A.** ≤ -4.2

**Q.** Which “polymerase ribozyme fitness (log ratio)” value does the source give for U53A C57A U102G C125A U134A here?
**A.** ≤ -4.2

**Q.** With C54A C87A U130A as the variant, how does the “polymerase ribozyme fitness (log ratio)” value read?
**A.** ≤ -4.2

**Q.** Which “polymerase ribozyme fitness (log ratio)” value does the source give for U53G C95G G128U here?
**A.** ≤ -4.2

**Q.** With U53A C79G C93A U102G A113G C116A U148C as the variant, how does the “polymerase ribozyme fitness (log ratio)” value read?
**A.** ≤ -4.2

**Q.** For U53A C95G C96G U146A, which “polymerase ribozyme fitness (log ratio)” value is on record?
**A.** -3.91

**Q.** Which “polymerase ribozyme fitness (log ratio)” value does the source give for A52U C108A here?
**A.** ≤ -4.2

**Q.** For U53G U56A C93A G136U, which “polymerase ribozyme fitness (log ratio)” value is on record?
**A.** ≤ -4.2

**Q.** For U53A C99U, which “polymerase ribozyme fitness (log ratio)” value is on record?
**A.** -2.58

**Q.** Which “polymerase ribozyme fitness (log ratio)” value does the source give for U53A C99U C116U here?
**A.** -1.7

**Q.** With U53A U148A as the variant, how does the “polymerase ribozyme fitness (log ratio)” value read?
**A.** -3.17

**Q.** For U53C G68A C85A U101C, which “polymerase ribozyme fitness (log ratio)” value is on record?
**A.** ≤ -4.2

**Q.** Which “polymerase ribozyme fitness (log ratio)” value does the source give for U53A G59C U77G A91G U102A U134A here?
**A.** ≤ -4.2

**Q.** With U53G C87A A120U A142U U146A as the variant, how does the “polymerase ribozyme fitness (log ratio)” value read?
**A.** ≤ -4.2

**Q.** With A52U C85G as the variant, how does the “polymerase ribozyme fitness (log ratio)” value read?
**A.** ≤ -4.2

**Q.** With U53A A66G C96U C125A as the variant, how does the “polymerase ribozyme fitness (log ratio)” value read?
**A.** ≤ -4.2

**Q.** Which “polymerase ribozyme fitness (log ratio)” value does the source give for U53G G94A G100C A115U here?
**A.** ≤ -4.2

**Q.** Which “polymerase ribozyme fitness (log ratio)” value does the source give for U53A A97U C114U G140U here?
**A.** ≤ -4.2

**Q.** Which “polymerase ribozyme fitness (log ratio)” value does the source give for U53G C54A C95A C103A C118A here?
**A.** ≤ -4.2

**Q.** Which “polymerase ribozyme fitness (log ratio)” value does the source give for U53G U55A G83A G112A A137C U144A here?
**A.** ≤ -4.2

**Q.** With A52U G58C U78A A122G as the variant, how does the “polymerase ribozyme fitness (log ratio)” value read?
**A.** ≤ -4.2

**Q.** Which “polymerase ribozyme fitness (log ratio)” value does the source give for A52G U78A U101G here?
**A.** ≤ -4.2

**Q.** With C54A C93G as the variant, how does the “polymerase ribozyme fitness (log ratio)” value read?
**A.** ≤ -4.2

**Q.** For A52U C75A G143A, which “polymerase ribozyme fitness (log ratio)” value is on record?
**A.** ≤ -4.2

**Q.** Which “polymerase ribozyme fitness (log ratio)” value does the source give for U53A U61A C93U A98G G100A C114U U127G A137U A142C here?
**A.** ≤ -4.2

**Q.** For A52U C87A A97U U127C A142C, which “polymerase ribozyme fitness (log ratio)” value is on record?
**A.** ≤ -4.2

**Q.** Which “polymerase ribozyme fitness (log ratio)” value does the source give for U53A G92A here?
**A.** -3.87

**Q.** For U53A A115U, which “polymerase ribozyme fitness (log ratio)” value is on record?
**A.** -2.87

**Q.** Which “polymerase ribozyme fitness (log ratio)” value does the source give for U53G C57U A91G A122U A142C U144A here?
**A.** ≤ -4.2

**Q.** For U53G G84U C96G, which “polymerase ribozyme fitness (log ratio)” value is on record?
**A.** ≤ -4.2

**Q.** For U53G C57G G59C G84U U90G C149A, which “polymerase ribozyme fitness (log ratio)” value is on record?
**A.** ≤ -4.2

**Q.** With U53A G59U A89U C95U C105G C125G U127C U145A as the variant, how does the “polymerase ribozyme fitness (log ratio)” value read?
**A.** ≤ -4.2

**Q.** Which “polymerase ribozyme fitness (log ratio)” value does the source give for A52U U53G U56A G65C C75U C85U U104G U127C U139A here?
**A.** ≤ -4.2

**Q.** With A52U G80C G126A G133C as the variant, how does the “polymerase ribozyme fitness (log ratio)” value read?
**A.** ≤ -4.2

**Q.** With U53G G74U G83C U101G as the variant, how does the “polymerase ribozyme fitness (log ratio)” value read?
**A.** ≤ -4.2

**Q.** With U53A G62C C93A C118G G133A as the variant, how does the “polymerase ribozyme fitness (log ratio)” value read?
**A.** ≤ -4.2

**Q.** With U53A G100C as the variant, how does the “polymerase ribozyme fitness (log ratio)” value read?
**A.** ≤ -4.2

**Q.** Which “polymerase ribozyme fitness (log ratio)” value does the source give for A52U C54A A64G C93U G136A U139G here?
**A.** ≤ -4.2

**Q.** For A52G U53A A119U G126C, which “polymerase ribozyme fitness (log ratio)” value is on record?
**A.** 0.147

**Q.** With U53A G136A as the variant, how does the “polymerase ribozyme fitness (log ratio)” value read?
**A.** -0.321

**Q.** For A52U U53A, which “polymerase ribozyme fitness (log ratio)” value is on record?
**A.** -1.23

**Q.** For U53A G140C, which “polymerase ribozyme fitness (log ratio)” value is on record?
**A.** -3.65

**Q.** For U53C G74A C76G C96U A110U, which “polymerase ribozyme fitness (log ratio)” value is on record?
**A.** ≤ -4.2

**Q.** For U53A C85G G100U G128U U135C G140C, which “polymerase ribozyme fitness (log ratio)” value is on record?
**A.** ≤ -4.2

**Q.** Which “polymerase ribozyme fitness (log ratio)” value does the source give for A52G U104A A122G U139G here?
**A.** -1.23

**Q.** With U53A A73G G86A G92U C95U G143U as the variant, how does the “polymerase ribozyme fitness (log ratio)” value read?
**A.** ≤ -4.2

**Q.** With U53A C54U C57A G86A as the variant, how does the “polymerase ribozyme fitness (log ratio)” value read?
**A.** -2.08

**Q.** For A52G U55A G59U A60C U82C A107G C108U G152U, which “polymerase ribozyme fitness (log ratio)” value is on record?
**A.** ≤ -4.2

**Q.** For A52U G86C, which “polymerase ribozyme fitness (log ratio)” value is on record?
**A.** ≤ -4.2

**Q.** With A52U U56A A73U C76U G83U C95A G112A A119G G140A as the variant, how does the “polymerase ribozyme fitness (log ratio)” value read?
**A.** ≤ -4.2

**Q.** For A52G U53G C85U U90G C93A, which “polymerase ribozyme fitness (log ratio)” value is on record?
**A.** ≤ -4.2

**Q.** Which “polymerase ribozyme fitness (log ratio)” value does the source give for U53A A91U G92A here?
**A.** ≤ -4.2

**Q.** Which “polymerase ribozyme fitness (log ratio)” value does the source give for U53A C69U C87G G88A G136U here?
**A.** ≤ -4.2

**Q.** For U53G G62A C95G, which “polymerase ribozyme fitness (log ratio)” value is on record?
**A.** ≤ -4.2

**Q.** Which “polymerase ribozyme fitness (log ratio)” value does the source give for A52U G83A C131G here?
**A.** ≤ -4.2

**Q.** With C54A C75G A91G as the variant, how does the “polymerase ribozyme fitness (log ratio)” value read?
**A.** ≤ -4.2

**Q.** For U53A C123U, which “polymerase ribozyme fitness (log ratio)” value is on record?
**A.** -0.0861

**Q.** Which “polymerase ribozyme fitness (log ratio)” value does the source give for C54A C93G U135G here?
**A.** ≤ -4.2

**Q.** For C54A C79G A107G A115C A142U A147U A150G, which “polymerase ribozyme fitness (log ratio)” value is on record?
**A.** ≤ -4.2

**Q.** With U53G G58C G59C U77C G84C C85U A89G C96U A110U as the variant, how does the “polymerase ribozyme fitness (log ratio)” value read?
**A.** ≤ -4.2

**Q.** Which “polymerase ribozyme fitness (log ratio)” value does the source give for U53C A60U U61A A89U U109G U148A A150U here?
**A.** ≤ -4.2
